Measured values taken from the RNAGym collection of RNA variant scans (doi:10.7554/elife.90254).
Read counts are not given, so values of variants with three or more changes are uncertain.

B1: LINE1-mini (parent)
chain: GGCAGAGCUCAACACAGCGUGGCAAAGUGGCUGUGGCUAGACUGCC

Variants of: B1
Assay: self-cleavage, relative activity (ratio to wild type); higher = more cleavage; in vitro, sequencing; the parent is a self-cleaving ribozyme
C13U C15A G17C gave a self-cleavage of 0.12.
C13U A26G U32G gave a self-cleavage of 0.15.
For C13U A26G U32A, the self-cleavage was 0.09.
Work on C13U U38C C42U G44U yielded a self-cleavage of 0.
In the case of C13U G35A G44U, the self-cleavage is reported as 0.03.
With A14C G19U U43A the self-cleavage was 0.03.
In the case of C13U G30A A39U, the self-cleavage is reported as 0.74.
With A14C G21U A39G C45G the self-cleavage was 0.03.
For C13U C15G U32G, the self-cleavage was 0.09.
C13U C15G G30A C31U C42U gave a self-cleavage of 0.
With C13U C15G G17C U20A C42U the self-cleavage was 0.01.
With C13U C18A G35C A41U C42G the self-cleavage was 0.01.
Work on A14C C18U A24U U38G yielded a self-cleavage of 0.02.
In the case of A14C C18U A39G, the self-cleavage is reported as 0.02.
In the case of A14C C23A U43G C46A, the self-cleavage is reported as 0.06.
Work on A14C G21C C45A yielded a self-cleavage of 0.03.
Work on A14C G27A A39U yielded a self-cleavage of 0.01.
C13U C18U C31G U32C gave a self-cleavage of 0.2.
A14C C18U U32A showed a self-cleavage of 0.12.
A14C C18U G33A showed a self-cleavage of 0.04.
C13U G22U C31A A41U G44A gave a self-cleavage of 0.05.
For C13U C18A A41U, the self-cleavage was 0.06.
For A14C G22U U43G, the self-cleavage was 0.
Variant C13U C15A A16G G22U has a self-cleavage of 0.02.
Variant C13U U34G C37A C46U has a self-cleavage of 0.02.
For C13U U28C G40A C42G, the self-cleavage was 0.26.
Work on C13U C37A C42A C45G yielded a self-cleavage of 0.2.
Work on C13U C42A G44U yielded a self-cleavage of 0.02.
Work on C13U C45A C46G yielded a self-cleavage of 0.08.
With A14C C18G G40A the self-cleavage was 0.29.
For A14C G19A C31G, the self-cleavage was 0.06.
Variant C13U G17A G19A A24C U43A C46A has a self-cleavage of 0.01.
C13U G27C G40C C42U gave a self-cleavage of 0.15.
Variant C13U C31G G35C has a self-cleavage of 0.08.
For C13U G21A C46G, the self-cleavage was 0.07.
Work on C13U U34G G35U G44U yielded a self-cleavage of 0.05.
Work on C13U G19C U34C U38C C45G yielded a self-cleavage of 0.09.
In the case of C13U A26C G33A C46G, the self-cleavage is reported as 0.1.
C13U G27A U34A C42A showed a self-cleavage of 0.07.
A14C A24U A25U U43C gave a self-cleavage of 0.03.
C13U G29C U34A showed a self-cleavage of 0.02.
In the case of C13U G17A G22U G44U, the self-cleavage is reported as 0.04.
C13U U20G G29U G33U G35A showed a self-cleavage of 0.07.
A14C C18A A25G G29U U32C showed a self-cleavage of 0.01.
C13U C23U U32C G35A A39U gave a self-cleavage of 0.05.
C13U U20G C46A showed a self-cleavage of 0.04.
Work on C13U C23A A25C U28G A39G yielded a self-cleavage of 0.12.
In the case of C13U C15A U43A, the self-cleavage is reported as 0.18.
Work on C13U G30C A39U yielded a self-cleavage of 0.08.
Variant C13U C23A C31A has a self-cleavage of 0.06.
Work on A14C C15U G29A G35C G40U C42U yielded a self-cleavage of 0.02.
A14C G27U A39C G40A G44U showed a self-cleavage of 0.13.
In the case of C13U C37U G44A C46G, the self-cleavage is reported as 0.01.
For C13U G17C C23G A26C, the self-cleavage was 0.03.
A14C G22U A25C G29A G30C G35A showed a self-cleavage of 0.05.
For C13U C18U U28G G35C, the self-cleavage was 0.04.
Work on C13U A41G U43A C46U yielded a self-cleavage of 0.02.
For C13U G17U C18A G33A A41C C42U, the self-cleavage was 0.06.
With C13U U20A U28C U32G C37A A41G U43A the self-cleavage was 0.01.
For C13U G21U A25G, the self-cleavage was 0.13.
C13U C31U U43C showed a self-cleavage of 0.06.
With A14C A25U U38C A41G the self-cleavage was 0.08.
C13U C18U G22A C31A gave a self-cleavage of 0.09.
With A14C A16C C18G U28C G44U the self-cleavage was 0.02.
C13U G22U G35C C45A showed a self-cleavage of 0.1.
C13U U38C A41G U43G C46U showed a self-cleavage of 0.1.
C13U G22A C42G C46U showed a self-cleavage of 0.04.
A14C G29A G35U C45U showed a self-cleavage of 0.07.
Variant C13U U28C C31U has a self-cleavage of 0.01.
For C13U U20C C37G G40A, the self-cleavage was 0.01.
For A14C C18U G22C G27U G36A, the self-cleavage was 0.25.
C13U G33U G40U gave a self-cleavage of 0.05.
In the case of C13U C15G C23U G36U U38A, the self-cleavage is reported as 0.01.
C13U G21C U28A G29U showed a self-cleavage of 0.03.
In the case of A14C A16U G29A, the self-cleavage is reported as 0.21.
For C13U C37U A39U, the self-cleavage was 0.08.
C13U G21U G30A A41G gave a self-cleavage of 0.31.
In the case of C13U G21A G33U, the self-cleavage is reported as 0.04.
Variant C13U A24U U32C has a self-cleavage of 0.09.
With C13U C18A U28A C42A the self-cleavage was 0.17.
Variant C13U A25U G36A G40U G44U has a self-cleavage of 0.03.
With C13U G33C A39G the self-cleavage was 0.04.
C13U G30C U38G showed a self-cleavage of 0.01.
C13U G30U U34G gave a self-cleavage of 0.05.
C13U G30U G44C C45A showed a self-cleavage of 0.06.
For A14C C37G C46U, the self-cleavage was 0.05.
Work on C13U G36C G44A yielded a self-cleavage of 0.15.
In the case of A14C C15A C18A, the self-cleavage is reported as 0.06.
For A14C G27U G40U, the self-cleavage was 0.04.
Work on C13U G17C G40C yielded a self-cleavage of 0.05.
For A14C C42U U43A, the self-cleavage was 0.02.
A14C G22A A24U U34G showed a self-cleavage of 0.02.
For C13U C23A C42G C45G, the self-cleavage was 0.01.
For A14C G21U C37A, the self-cleavage was 0.06.
Variant A14C C18A G27C C46A has a self-cleavage of 0.11.
A14C C37G G40U gave a self-cleavage of 0.38.
For A14C A16G A26U U32G G44A, the self-cleavage was 0.05.
Variant C13U G33A U43C G44C has a self-cleavage of 0.07.
Work on C13U G21C A24G A26G G35A U38G yielded a self-cleavage of 0.01.
For A14C C31G G35U G44C C45A, the self-cleavage was 0.02.
C13U A25G C46U showed a self-cleavage of 0.05.
Work on C13U G17C G35C C45G yielded a self-cleavage of 0.01.
Work on A14C G21U A26G yielded a self-cleavage of 0.01.
C13U G21A G29U C37G showed a self-cleavage of 0.01.
In the case of C13U G21U A25U C31G G44C, the self-cleavage is reported as 0.06.
With C13U C18G G22A A39G C42G C45U C46A the self-cleavage was 0.
In the case of C13U G22A G30C C31A G44U, the self-cleavage is reported as 0.03.
C13U C15A G29C G40A C46A showed a self-cleavage of 0.01.
Variant C13U G29A G44A has a self-cleavage of 0.07.
A14C C42U C46A showed a self-cleavage of 0.06.
For C13U G22A A26G G30U G33U U38G, the self-cleavage was 0.
Work on C13U C31U U38G U43A yielded a self-cleavage of 0.01.
C13U A41U G44A gave a self-cleavage of 0.03.
For C13U G22U C31U G35A G44U, the self-cleavage was 0.03.
In the case of C13U G33C C37U C45G, the self-cleavage is reported as 0.02.
In the case of C13U U20A G22A C31A A39G U43G, the self-cleavage is reported as 0.05.
Work on C13U A25C G36U yielded a self-cleavage of 0.06.
In the case of C13U G22C G40A C45A, the self-cleavage is reported as 0.05.
A14C A25U G27A C31A showed a self-cleavage of 0.16.
C13U C23A G44U C46U showed a self-cleavage of 0.44.
In the case of C13U G21C A24U A25G G36A, the self-cleavage is reported as 0.16.
With C13U C18U U34A C37U U38A C42G the self-cleavage was 0.
Variant C13U A24U G30A A41C has a self-cleavage of 0.04.
For A14C A39G G44U, the self-cleavage was 0.07.
Variant C13U G22C A39C has a self-cleavage of 0.02.
For A14C C18A G40U A41U, the self-cleavage was 0.12.
C13U C15G C31U showed a self-cleavage of 0.02.
In the case of C13U G21U G44U C45A, the self-cleavage is reported as 0.04.
For A14C G33A G40U, the self-cleavage was 0.06.
A14C G17C G22U G40A gave a self-cleavage of 0.03.
For A14C A25C A26C C42A, the self-cleavage was 0.04.
Work on C13U C15A G35U yielded a self-cleavage of 0.02.
With C13U U20C G40U C45G the self-cleavage was 0.05.
Work on C13U A24G U32A G35A C46G yielded a self-cleavage of 0.59.
For C13U A24C G44A, the self-cleavage was 0.02.
With A14C C18A G44U the self-cleavage was 0.02.
With A14C G21U A24C G27U U34G U38A the self-cleavage was 0.03.
Work on A14C G29U U38G A41G yielded a self-cleavage of 0.03.
With C13U C15U U20G G22A A25U G30A the self-cleavage was 0.03.
C13U G36C C42U C46U gave a self-cleavage of 0.15.
A14C G29A C31A C37U gave a self-cleavage of 0.11.
For C13U G21C A24G C45U, the self-cleavage was 0.07.
A14C A26G G44C showed a self-cleavage of 0.01.
Variant C13U G33C G44U has a self-cleavage of 0.03.
In the case of C13U G29C G30U, the self-cleavage is reported as 0.14.
In the case of A14C C37A C45G, the self-cleavage is reported as 0.07.
In the case of C13U C15A U34G G40U, the self-cleavage is reported as 0.03.
Variant C13U C31U G33U has a self-cleavage of 0.02.
C13U G33A C37A U38C G40U showed a self-cleavage of 0.02.
In the case of A14C A25G C37G, the self-cleavage is reported as 0.41.
C13U C15G G21A G35U G44C showed a self-cleavage of 0.02.
For C13U G19C G27A C31A, the self-cleavage was 0.06.
In the case of A14C A24U A25C C31G U38C C45G, the self-cleavage is reported as 0.01.
C13U U32C U34G gave a self-cleavage of 0.05.
Work on C13U A24G C37G yielded a self-cleavage of 0.02.
A14C A16C G17C C23U U32G showed a self-cleavage of 0.
Variant C13U C15G C45U has a self-cleavage of 0.05.
Variant C13U A24U A25U U32A A41U has a self-cleavage of 0.1.
Work on C13U G17U G30A C42U C46U yielded a self-cleavage of 0.16.
C13U C31A C45A gave a self-cleavage of 0.06.
Variant C13U G17C G35U has a self-cleavage of 0.49.
For C13U G22U A25U G36U, the self-cleavage was 0.07.
A14C G29U G30A C31U gave a self-cleavage of 0.07.
With C13U U20A G30A U38G the self-cleavage was 0.
Work on A14C G17C A25G G40A G44A yielded a self-cleavage of 0.04.
C13U G30A G40C gave a self-cleavage of 0.01.
Variant C13U G30A G40U has a self-cleavage of 0.15.
